# Measurements reported in paper PMC9911399, “Two distinct binding modes provide the RNA-binding protein RbFox with extraordinary sequence specificity”.
# Residue numbers refer to the chain shown, from its start. The list shows a part of the results.
# T1: RBFOX1 RRM RbFoxmut (Fox-RRM*) (Homo sapiens, UniProt Q9NWB1 109-208, R118D;E147R;N151S;E152T)
# T1 sequence: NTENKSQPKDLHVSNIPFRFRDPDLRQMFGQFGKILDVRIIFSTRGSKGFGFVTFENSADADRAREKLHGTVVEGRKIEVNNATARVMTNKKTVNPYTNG
# B1: CUCUCUA (DNA:RNA)
# RNA: GGGAGACCGGAAUUCAGAUUGUCCCUCUCUAUUAAAUCCCGUCGUAGCCACCA
# DNA 1: CAATCTGAATTCCGGTCTCCC
# DNA 2: TGGTGGCTACGACGGGATT
# B2: AAUAUGA (DNA:RNA)
# RNA: B1 RNA with C25A, U26A, C27U, U28A, C29U, U30G
# DNA 1: CAATCTGAATTCCGGTCTCCC
# DNA 2: TGGTGGCTACGACGGGATT
# B3: AAGAAGU (DNA:RNA)
# RNA: GGGAGACCGGAAUUCAGAUUGUCCAAGAAGUUUAAAUCCCGUCGUAGCCACCA
# DNA 1: CAATCTGAATTCCGGTCTCCC
# DNA 2: TGGTGGCTACGACGGGATT
# B4: UAGGAUC (DNA:RNA)
# RNA: B3 RNA with A25U, A28G, G30U, U31C
# DNA 1: CAATCTGAATTCCGGTCTCCC
# DNA 2: TGGTGGCTACGACGGGATT
# B5: GAGCAUA (DNA:RNA)
# RNA: B3 RNA with A25G, A28C, G30U, U31A
# DNA 1: CAATCTGAATTCCGGTCTCCC
# DNA 2: TGGTGGCTACGACGGGATT
# B6: GGCACUU (DNA:RNA)
# RNA: B1 RNA with C25G, U26G, U28A, A31U
# DNA 1: CAATCTGAATTCCGGTCTCCC
# DNA 2: TGGTGGCTACGACGGGATT
# B7: GCACUCC (DNA:RNA)
# RNA: GGGAGACCGGAAUUCAGAUUGUCCGCACUCCUUAAAUCCCGUCGUAGCCACCA
# DNA 1: CAATCTGAATTCCGGTCTCCC
# DNA 2: TGGTGGCTACGACGGGATT
# B8: AGGACAC (DNA:RNA)
# RNA: B3 RNA with A26G, A29C, G30A, U31C
# DNA 1: CAATCTGAATTCCGGTCTCCC
# DNA 2: TGGTGGCTACGACGGGATT
# B9: AUCGUUU (DNA:RNA)
# RNA: B1 RNA with C25A, U28G, C29U, A31U
# DNA 1: CAATCTGAATTCCGGTCTCCC
# DNA 2: TGGTGGCTACGACGGGATT
# B10: GAUAAGG (DNA:RNA)
# RNA: B3 RNA with A25G, G27U, U31G
# DNA 1: CAATCTGAATTCCGGTCTCCC
# DNA 2: TGGTGGCTACGACGGGATT
# B11: AGUCCAG (DNA:RNA)
# RNA: B3 RNA with A26G, G27U, A28C, A29C, G30A, U31G
# DNA 1: CAATCTGAATTCCGGTCTCCC
# DNA 2: TGGTGGCTACGACGGGATT
# B12: GCUACUC (DNA:RNA)
# RNA: B7 RNA with A27U, C28A, U29C, C30U
# DNA 1: CAATCTGAATTCCGGTCTCCC
# DNA 2: TGGTGGCTACGACGGGATT
# B13: GGUGUCU (DNA:RNA)
# RNA: B7 RNA with C26G, A27U, C28G, C31U
# DNA 1: CAATCTGAATTCCGGTCTCCC
# DNA 2: TGGTGGCTACGACGGGATT
# B14: GCGGCGA (DNA:RNA)
# RNA: B3 RNA with A25G, A26C, A28G, A29C, U31A
# DNA 1: CAATCTGAATTCCGGTCTCCC
# DNA 2: TGGTGGCTACGACGGGATT
# B15: GGUCAGC (DNA:RNA)
# RNA: B7 RNA with C26G, A27U, U29A, C30G
# DNA 1: CAATCTGAATTCCGGTCTCCC
# DNA 2: TGGTGGCTACGACGGGATT
# B16: ACAGGUG (DNA:RNA)
# RNA: B7 RNA with G25A, C28G, U29G, C30U, C31G
# DNA 1: CAATCTGAATTCCGGTCTCCC
# DNA 2: TGGTGGCTACGACGGGATT
# B17: UAGGCCA (DNA:RNA)
# RNA: B3 RNA with A25U, A28G, A29C, G30C, U31A
# DNA 1: CAATCTGAATTCCGGTCTCCC
# DNA 2: TGGTGGCTACGACGGGATT
# B18: GGCCGCU (DNA:RNA)
# RNA: B7 RNA with C26G, A27C, U29G, C31U
# DNA 1: CAATCTGAATTCCGGTCTCCC
# DNA 2: TGGTGGCTACGACGGGATT
# B19: GCGGGGG (DNA:RNA)
# RNA: B3 RNA with A25G, A26C, A28G, A29G, U31G
# DNA 1: CAATCTGAATTCCGGTCTCCC
# DNA 2: TGGTGGCTACGACGGGATT
# B20: AUAAGGU (DNA:RNA)
# RNA: B3 RNA with A26U, G27A, A29G
# DNA 1: CAATCTGAATTCCGGTCTCCC
# DNA 2: TGGTGGCTACGACGGGATT
# Target: T1, RBFOX1 RRM RbFoxmut (Fox-RRM*)
# Test: EMSA; HiTS-Eq, 1 nM pool, 10 min; buffer printed only for the single-RNA assays: 10 mM Tris pH 7.5, 150 mM NaCl, 3.4 mM EDTA, 0.001% NP-40, 30 C
# Details: tags: His6 N-terminal (pET28a); label: 5' 32P
# Method in brief: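 Purified wild-type or mutant RbFox RRM at increasing concentrations was equilibrated with 1 nM of 5′-radiolabelled RNA carrying 7 randomized nucleotides for 10 min in 50 µL. Unbound RNA was separated by 8% native PAGE and sequenced. Relative association constants came from read-count changes of each RNA species compared with the control reaction, normalised to the cognate motif.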
row,Binder,binding signal
1,B1,0.111 KA relative to UGCAUGU
2,B2,0.0642 KA relative to UGCAUGU
3,B3,0.137 KA relative to UGCAUGU
4,B4,0.0992 KA relative to UGCAUGU
5,B5,0.114 KA relative to UGCAUGU
6,B6,0.0565 KA relative to UGCAUGU
7,B7,0.0438 KA relative to UGCAUGU
8,B8,0.0652 KA relative to UGCAUGU
9,B9,0.112 KA relative to UGCAUGU
10,B10,0.0515 KA relative to UGCAUGU
11,B11,0.113 KA relative to UGCAUGU
12,B12,0.0593 KA relative to UGCAUGU
13,B13,0.122 KA relative to UGCAUGU
14,B14,0.101 KA relative to UGCAUGU
15,B15,0.0924 KA relative to UGCAUGU
16,B16,0.134 KA relative to UGCAUGU
17,B17,0.0765 KA relative to UGCAUGU
18,B18,0.0597 KA relative to UGCAUGU
19,B19,0.102 KA relative to UGCAUGU
20,B20,0.0832 KA relative to UGCAUGU
